According to a compilation of properties of binary mixtures (doi:10.1016/j.molliq.2020.114573):
The densities may have been worked out from excess volumes.

Test: xn = mol fraction of the nth substance listed
Conditions: 101.3 kPa

## CC1COC(=O)O1 (configuration not stated) + CCCC[n+]1ccn(C)c1.O=S(=O)([N-]S(=O)(=O)C(F)(F)F)C(F)(F)F
288.15 K, x2 = 0
  mass density: 1209.4 kg/m3
288.15 K, x2 = 0.2043
  mass density: 1321.1 kg/m3
288.15 K, x2 = 0.3354
  mass density: 1360.4 kg/m3
288.15 K, x2 = 0.4039
  mass density: 1375.9 kg/m3
288.15 K, x2 = 0.5865
  mass density: 1406.4 kg/m3
288.15 K, x2 = 0.8
  mass density: 1430.3 kg/m3
288.15 K, x2 = 0.8498
  mass density: 1434.7 kg/m3
293.15 K, x2 = 0
  mass density: 1204.1 kg/m3
293.15 K, x2 = 0.0963
  mass density: 1267.9 kg/m3
293.15 K, x2 = 0.2043
  mass density: 1315.9 kg/m3
293.15 K, x2 = 0.3354
  mass density: 1355.3 kg/m3
293.15 K, x2 = 0.5115
  mass density: 1390.4 kg/m3
293.15 K, x2 = 0.7225
  mass density: 1417.8 kg/m3
293.15 K, x2 = 0.8498
  mass density: 1429.8 kg/m3
298.15 K, x2 = 0
  mass density: 1198.8 kg/m3
298.15 K, x2 = 0.0963
  mass density: 1262.7 kg/m3
298.15 K, x2 = 0.2043
  mass density: 1310.8 kg/m3
298.15 K, x2 = 0.3354
  mass density: 1350.3 kg/m3
298.15 K, x2 = 0.4039
  mass density: 1365.8 kg/m3
298.15 K, x2 = 0.5115
  mass density: 1385.4 kg/m3
298.15 K, x2 = 0.5865
  mass density: 1396.5 kg/m3
298.15 K, x2 = 0.7225
  mass density: 1412.9 kg/m3
298.15 K, x2 = 0.8498
  mass density: 1425 kg/m3
303.15 K, x2 = 0
  mass density: 1193.5 kg/m3
303.15 K, x2 = 0.0963
  mass density: 1257.5 kg/m3
303.15 K, x2 = 0.3354
  mass density: 1345.2 kg/m3
303.15 K, x2 = 0.4039
  mass density: 1360.8 kg/m3
303.15 K, x2 = 0.7225
  mass density: 1408 kg/m3
303.15 K, x2 = 0.8
  mass density: 1415.7 kg/m3
303.15 K, x2 = 0.8498
  mass density: 1420.1 kg/m3
308.15 K, x2 = 0
  mass density: 1188.2 kg/m3
308.15 K, x2 = 0.0963
  mass density: 1252.3 kg/m3
308.15 K, x2 = 0.3354
  mass density: 1340.2 kg/m3
308.15 K, x2 = 0.5115
  mass density: 1375.5 kg/m3
308.15 K, x2 = 0.8
  mass density: 1410.9 kg/m3
313.15 K, x2 = 0
  mass density: 1182.9 kg/m3
313.15 K, x2 = 0.4039
  mass density: 1350.9 kg/m3
313.15 K, x2 = 0.5115
  mass density: 1370.6 kg/m3
313.15 K, x2 = 0.7225
  mass density: 1398.3 kg/m3
313.15 K, x2 = 0.8
  mass density: 1406 kg/m3
313.15 K, x2 = 0.8498
  mass density: 1410.5 kg/m3
318.15 K, x2 = 0
  mass density: 1177.6 kg/m3
318.15 K, x2 = 0.2043
  mass density: 1290.4 kg/m3
318.15 K, x2 = 0.3354
  mass density: 1330.2 kg/m3
318.15 K, x2 = 0.4039
  mass density: 1345.9 kg/m3
318.15 K, x2 = 0.5115
  mass density: 1365.7 kg/m3
318.15 K, x2 = 0.7225
  mass density: 1393.4 kg/m3
318.15 K, x2 = 0.8
  mass density: 1401.2 kg/m3
323.15 K, x2 = 0
  mass density: 1172.3 kg/m3
323.15 K, x2 = 0.0963
  mass density: 1236.7 kg/m3
323.15 K, x2 = 0.2043
  mass density: 1285.3 kg/m3
323.15 K, x2 = 0.3354
  mass density: 1325.2 kg/m3
323.15 K, x2 = 0.4039
  mass density: 1341 kg/m3
323.15 K, x2 = 0.5115
  mass density: 1360.8 kg/m3
323.15 K, x2 = 0.7225
  mass density: 1388.6 kg/m3
323.15 K, x2 = 0.8
  mass density: 1396.4 kg/m3
323.15 K, x2 = 0.8498
  mass density: 1400.9 kg/m3
328.15 K, x2 = 0
  mass density: 1166.9 kg/m3
328.15 K, x2 = 0.0963
  mass density: 1231.6 kg/m3
328.15 K, x2 = 0.2043
  mass density: 1280.3 kg/m3
328.15 K, x2 = 0.3354
  mass density: 1320.2 kg/m3
328.15 K, x2 = 0.5115
  mass density: 1355.9 kg/m3
328.15 K, x2 = 0.5865
  mass density: 1367.2 kg/m3
328.15 K, x2 = 0.7225
  mass density: 1383.8 kg/m3
333.15 K, x2 = 0
  mass density: 1161.6 kg/m3
333.15 K, x2 = 0.3354
  mass density: 1315.3 kg/m3
333.15 K, x2 = 0.4039
  mass density: 1331.1 kg/m3
333.15 K, x2 = 0.5115
  mass density: 1351 kg/m3
333.15 K, x2 = 0.5865
  mass density: 1362.4 kg/m3
333.15 K, x2 = 0.7225
  mass density: 1379 kg/m3
333.15 K, x2 = 0.8
  mass density: 1386.9 kg/m3
333.15 K, x2 = 0.8498
  mass density: 1391.4 kg/m3
338.15 K, x2 = 0
  mass density: 1156.3 kg/m3
338.15 K, x2 = 0.0963
  mass density: 1221.3 kg/m3
338.15 K, x2 = 0.3354
  mass density: 1310.3 kg/m3
338.15 K, x2 = 0.4039
  mass density: 1326.2 kg/m3
338.15 K, x2 = 0.5115
  mass density: 1346.2 kg/m3
338.15 K, x2 = 0.5865
  mass density: 1357.6 kg/m3
338.15 K, x2 = 0.7225
  mass density: 1374.3 kg/m3
338.15 K, x2 = 0.8
  mass density: 1382.2 kg/m3
338.15 K, x2 = 0.8498
  mass density: 1386.7 kg/m3
343.15 K, x2 = 0
  mass density: 1151 kg/m3
343.15 K, x2 = 0.0963
  mass density: 1216.1 kg/m3
343.15 K, x2 = 0.2043
  mass density: 1265.1 kg/m3
343.15 K, x2 = 0.3354
  mass density: 1305.4 kg/m3
343.15 K, x2 = 0.5115
  mass density: 1341.3 kg/m3
343.15 K, x2 = 0.5865
  mass density: 1352.8 kg/m3
343.15 K, x2 = 0.7225
  mass density: 1369.5 kg/m3
343.15 K, x2 = 0.8
  mass density: 1377.4 kg/m3
343.15 K, x2 = 0.8498
  mass density: 1382 kg/m3
348.15 K, x2 = 0.2043
  mass density: 1260.1 kg/m3
348.15 K, x2 = 0.3354
  mass density: 1300.4 kg/m3
348.15 K, x2 = 0.4039
  mass density: 1316.4 kg/m3
348.15 K, x2 = 0.5115
  mass density: 1336.5 kg/m3
348.15 K, x2 = 0.5865
  mass density: 1348 kg/m3
348.15 K, x2 = 0.7225
  mass density: 1364.8 kg/m3
348.15 K, x2 = 0.8498
  mass density: 1377.3 kg/m3

## CC1COC(=O)O1 (configuration not stated) + CC[n+]1ccn(C)c1C.O=S(=O)([N-]S(=O)(=O)C(F)(F)F)C(F)(F)F
293.15 K, x2 = 0
  mass density: 1204.1 kg/m3
298.15 K, x2 = 0
  mass density: 1198.8 kg/m3
303.15 K, x2 = 0
  mass density: 1193.5 kg/m3
313.15 K, x2 = 0
  mass density: 1182.9 kg/m3
318.15 K, x2 = 0
  mass density: 1177.6 kg/m3
323.15 K, x2 = 0
  mass density: 1172.3 kg/m3
328.15 K, x2 = 0
  mass density: 1166.9 kg/m3
333.15 K, x2 = 0
  mass density: 1161.6 kg/m3
338.15 K, x2 = 0
  mass density: 1156.3 kg/m3
343.15 K, x2 = 0
  mass density: 1151 kg/m3

## CC1COC(=O)O1 (configuration not stated) + FC(S(=O)(=O)[N-]S(=O)(=O)C(F)(F)F)(F)F.C(CCC)N1C(=[N+](C=C1)C)C
298.15 K, x2 = 0
  mass density: 1198.8 kg/m3
303.15 K, x2 = 0
  mass density: 1193.5 kg/m3
308.15 K, x2 = 0
  mass density: 1188.2 kg/m3
313.15 K, x2 = 0
  mass density: 1182.9 kg/m3
318.15 K, x2 = 0
  mass density: 1177.6 kg/m3
323.15 K, x2 = 0
  mass density: 1172.3 kg/m3
328.15 K, x2 = 0
  mass density: 1166.9 kg/m3
333.15 K, x2 = 0
  mass density: 1161.6 kg/m3
338.15 K, x2 = 0
  mass density: 1156.3 kg/m3
348.15 K, x2 = 0
  mass density: 1145.7 kg/m3
